Screen size: about 50,000 compounds; about 800 (1.6%) showed an effect of 50% or more. The list shows a part of the results.
These compounds were tested against Bcl-2-like protein 10 (Homo sapiens) (UniProt Q9HD36) (assay: Phenotype converters, Bcl-B/TR3 peptide binding displacement, primary biochemical FP (AID 1240;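 further: 0% = Bcl-B with tracer peptide and DMSO and 100% = tracer peptide lacking Bcl-B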)). Conditions: GST-Bcl-B / FITC-TR3 peptide fluorescence polarization; stronger effect = higher value; compound at 3.75 mg/L.
UniProt Q9HD36, sequence (Q9HD36 whole entry, looked up): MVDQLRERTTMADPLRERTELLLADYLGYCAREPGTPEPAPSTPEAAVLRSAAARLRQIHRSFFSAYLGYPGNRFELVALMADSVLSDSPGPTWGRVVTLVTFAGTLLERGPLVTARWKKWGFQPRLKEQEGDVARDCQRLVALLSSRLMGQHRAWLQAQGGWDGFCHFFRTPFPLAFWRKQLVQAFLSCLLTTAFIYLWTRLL
Work on `O=S(=O)(c1ccc(Cl)cc1)N1CCOC(c2ccccc2)C1` (stereo not given) yielded a displacement of 17.7%. Work on `O=C(Nc1ccc(Cl)c(-c2nc3ccccc3[nH]2)c1)c1ccncc1` yielded a displacement of 0.1%. `O=C(CN(c1cccc([N+](=O)[O-])c1)S(=O)(=O)c1ccccc1)N[C@@H]1CCCC[C@H]1O` was tested, and the displacement was 8.2%. `O=S(=O)(c1ccc(Cl)cc1)N1CCN(C2CCCCCC2)CC1` showed a displacement of -2.3%. With `COc1ccc(NC(=O)COc2cc(C)c(Cl)c(C)c2)cc1OC` the displacement was 11.1%. Work on `COCCOC(=O)c1ccc(NC(=O)c2ccc(-c3ccccc3)cc2)cc1` yielded a displacement of -5.1%. `O=C(C(=Cc1ccc(-c2ccc(Br)cc2)o1)C(=O)c1ccccc1)c1ccccc1` was tested, and the displacement was 11.9%. With `Cc1cc(C=C2C(=O)c3ccccc3C2=O)c(C)n1-c1cccnc1` the displacement was -15.5%. `CCN1C(=O)/C(=C/c2cccc(OC(=O)c3ccccc3I)c2)SC1=S` was tested, and the displacement was 10.5%. Compound `O=C(COc1ccc([N+](=O)[O-])cc1)Nc1ccc(OC(F)(F)F)cc1` has a displacement of -16.7%. Work on `COc1ccc(N=Cc2c(O)c3ccccc3n2C(C)=O)cc1` yielded a displacement of -6.8%. `Cc1ccc(O)c(/C=C2\Sc3ccccc3C2=O)c1` gave a displacement of -8.7%. Compound `CC(/C=C/c1ccco1)=N/NC(=O)CNc1ccc(C)cc1` has a displacement of -12.5%. Work on `CCN1C(=O)/C(=C2\SC(=S)N(NC(=O)c3ccccc3Cl)C2=O)c2ccccc21` yielded a displacement of 13.6%. Compound `O=C(O)/C=C/c1cccc(/C=C/C(=O)O)c1` has a displacement of -7.2%. Work on `CCC(=O)c1ccc(N2CCN(C(=O)CC)CC2)c(F)c1` yielded a displacement of -11.2%. `O=c1c2c3c(sc2ncn1/N=C/c1ccccc1)CCCC3` gave a displacement of 10.6%. Work on `COc1ccc(-c2cc(C(=O)N/N=C(\C)c3ccc([N+](=O)[O-])cc3)[nH]n2)cc1` yielded a displacement of 1.5%. For `Cc1ccc(N(CC(=O)NCCOc2ccc(F)cc2)S(=O)(=O)c2ccccc2)cc1C`, the displacement was -8.4%. `C[n+]1cccc(C(O)P(=O)(c2ccccc2)c2ccccc2)c1` (stereo not given) was tested, and the displacement was -8.7%. `C#CC(C)(C)NC(=O)/C=C/c1ccccc1Cl` showed a displacement of 7.7%. Work on `COc1cc(C=C2C(=O)N(C)C(=O)N(C)C2=O)ccc1OCc1ccccc1Cl` yielded a displacement of -1.1%. In the case of `Cc1ccnc(N2C(=O)c3ccc(C(=O)c4ccc5c(c4)C(=O)N(c4cc(C)ccn4)C5=O)cc3C2=O)c1`, the displacement is reported as 5.1%. In the case of `O=[N+]([O-])c1ccc2nc(Sc3nnc(-c4ccccc4)n3-c3ccccc3)sc2c1`, the displacement is reported as 12.9%. Work on `O=C(Nc1nc2ccccc2s1)c1ccc(Oc2ccc([N+](=O)[O-])cc2)cc1` yielded a displacement of 3.3%. For `CCc1cccc(NC(=O)c2cccc(F)c2)c1`, the displacement was -22.5%. For `C#CCOC(=O)c1ccc(S(=O)(=O)N2CCOCC2)cc1`, the displacement was -10.4%. For `COc1ccc(-c2cn(/N=C/c3ccc(Cl)cc3Cl)c(N)n2)cc1`, the displacement was -7.2%. For `O=C1C(=O)N(c2nc3ccccc3s2)C(c2cccc(F)c2)/C1=C(/O)c1ccccc1` (stereo not given), the displacement was 6%. In the case of `C=CCN1C(=O)/C(=C\C=C\c2ccc(N(C)C)cc2)SC1=S`, the displacement is reported as -15.3%. For `O=C(CSc1cccc2cccnc12)N1CCCCC1`, the displacement was -10.1%. `CC(C)COc1ccc(C(=O)Nc2ccc([N+](=O)[O-])cc2)cc1` showed a displacement of 12.6%. `CCN(CC)CCCNC(=O)c1ccc(Cl)cc1[N+](=O)[O-]` showed a displacement of 9.6%. In the case of `CCC(C(=O)Nc1ccccc1Cl)c1ccccc1` (stereo not given), the displacement is reported as 0.1%. `COc1cccc(NC(=O)/C=C/c2cccc([N+](=O)[O-])c2)c1` gave a displacement of -8.6%. `O=[N+]([O-])c1cc(C2N(c3ccccc3)CCN2c2ccccc2)ccc1Cl` gave a displacement of -5.4%. `COc1cc(NC(=O)c2ccc(OCc3ccccc3)cc2)ccc1NC(=O)c1ccco1` gave a displacement of 0.4%. With `CCOC(=O)C1=C(C)NC2=C(C(=O)CCC2)C1c1ccc(OCc2cccc(F)c2)c([N+](=O)[O-])c1` (stereo not given) the displacement was 6.8%. `N=c1n(CCOc2ccccc2)c2ccccc2n1CCN1CCOCC1` showed a displacement of -5.8%. With `COC(=O)c1c(N)sc(C)c1-c1ccc(C)cc1` the displacement was -8.5%. `CCN(CC)c1ccc(NC(=O)COc2cccc(C)c2)cc1` showed a displacement of 12.7%. With `Cc1ccc(-c2csc(NC(=O)C3C4CCC(C4)C3C(=O)O)n2)c(C)c1` (stereo not given) the displacement was -0.1%. Compound `CCCc1c(O)nc(SCCN(C)C)[nH]c1=O` has a displacement of 3%. For `CC(C(=O)N1CCN(Cc2ccc(Cl)cc2)CC1)N1C(=O)c2ccccc2C1=O` (stereo not given), the displacement was -8.7%. In the case of `NC(=O)c1cc(NC(=O)c2cc3ccccc3cc2O)cc(C(N)=O)c1`, the displacement is reported as -4.2%. `O=C1c2ccccc2-c2onc3c(Cl)cc(Sc4ccccc4)c1c23` was tested, and the displacement was 8.4%. For `COc1cc2c(cc1NC(=O)c1cccc([N+](=O)[O-])c1)oc1ccccc12`, the displacement was -4.6%. Work on `COc1ccc(/C=C/C(=O)Nc2scc(-c3cccs3)c2C(=O)O)cc1OC` yielded a displacement of 15.3%. With `COCCCNS(=O)(=O)c1ccccc1[N+](=O)[O-]` the displacement was -2.7%. Work on `CCOC(=O)C1=C(C(=O)OCC)SC(=C2C(=S)C(C)(C)N(C(=O)c3ccc(OC)cc3)c3ccccc32)S1` yielded a displacement of -6%. In the case of `CC(=O)Nc1ccccc1NC(=O)c1ccc(F)cc1`, the displacement is reported as 8.5%. `COc1ccc(N(CC(=O)N(Cc2ccccc2)Cc2ccccc2)S(=O)(=O)c2ccccc2)cc1` was tested, and the displacement was 3.2%. In the case of `COc1cccc(C(=O)N2N=C(c3cccnc3)CC2(O)C(F)(F)F)c1` (stereo not given), the displacement is reported as -2.9%. For `COc1ccc(CCNC(=O)C(=O)NCCCOC(C)C)cc1`, the displacement was 10%. In the case of `Cc1ccc(C(=O)Nc2cccnc2)o1`, the displacement is reported as 1.3%. `CN(C)c1ccc(/C=C2\SC(=S)N(/N=C/c3ccc(N(C)C)cc3)C2=O)cc1` showed a displacement of 10.4%. `Cc1ccc(C2C3=C(CC(C)(C)CC3=O)NC3=C2C(=O)CC(C)(C)C3)o1` showed a displacement of 1.6%. With `N#Cc1c(N)nc2cc(N)ccc2c1-c1ccc(O)cc1` the displacement was -1.5%. `CCOc1ccc(N(CC(N)=O)S(C)(=O)=O)cc1` showed a displacement of 14%. `CCCOc1ccc(CCc2n[nH]c(=S)n2-c2ccccc2)cc1` showed a displacement of -8.3%. In the case of `O=C(NCCSc1ccccn1)c1cccc(Cl)c1`, the displacement is reported as 1.1%. `COc1cc(CN2CCN(Cc3cccc(Cl)c3)CC2)cc(OC)c1` was tested, and the displacement was -7.3%. With `O=C(NCc1ccccc1)C1CC(=O)N(c2ccc(F)cc2)C1` (stereo not given) the displacement was 6.1%. `CC1=C(C(=O)Nc2ccc(Cl)cc2)C(c2ccc([N+](=O)[O-])cc2)NC(=S)N1` (stereo not given) was tested, and the displacement was 4.6%. `CC1(C)CC(=O)C2=C(C1)OC1=C(C(=O)CC(C)(C)C1)C2c1ccc(-c2ccc([N+](=O)[O-])cc2Cl)o1` showed a displacement of -1.3%. Work on `COc1cccc(C(=O)N2CCN(C3CC4CCC3C4)CC2)c1` (stereo not given) yielded a displacement of 15.4%. Compound `NC(=O)SCC(=O)Nc1ccc(Cl)c(Cl)c1` has a displacement of 4.7%. In the case of `COc1ccc(C(=O)Nc2cc3nn(-c4ccc(C)cc4)nc3cc2C)cc1Cl`, the displacement is reported as -1.2%. `COc1ccc(OCCCCN2CCN(C)CC2)cc1` gave a displacement of -5.8%. In the case of `Cc1ccc(-n2ncnc2-c2cccc(Br)c2)cc1Cl`, the displacement is reported as -3.8%. `O=[N+]([O-])c1cc(C(F)(F)F)ccc1N1CCN(S(=O)(=O)c2ccc(Cl)cc2)CC1` showed a displacement of 5.2%. Compound `O=C(NCCc1nc2ccccc2[nH]1)c1cccc(Br)c1` has a displacement of 3.1%. `COc1cc(C(=S)N2CCCCC2)cc(Br)c1O` gave a displacement of -8%. For `CCOc1ccc(/C=N/N2CCN(C(c3ccccc3)c3ccccc3)CC2)cc1`, the displacement was -9.6%. For `CS(=O)(=O)N(CC(=O)Nc1ccc(Oc2ccccc2)cc1)c1ccccc1Cl`, the displacement was 9.5%. With `CN1C(=O)N2CN(C3CCCCC3)CN3C(=O)N(C)C1C23` (stereo not given) the displacement was 4.6%. Work on `Cc1cccc(N2CCN(C(=O)c3cccnc3)CC2)c1C` yielded a displacement of 4%. `COc1ccc(CCN/C=C2\CC(=O)NC2=O)cc1OC` gave a displacement of 12.1%. `Clc1cccc(OCCn2ccnc2)c1` gave a displacement of 3.3%. `Cc1c(Cl)cccc1N1CC(C(=O)Nc2nccs2)CC1=O` (stereo not given) showed a displacement of 0.3%. For `CCC(=O)Nc1ccc(NC(=O)COc2ccccc2)cc1`, the displacement was -4.5%. For `CCC(CC)C(=O)NC1CCCCCC1`, the displacement was -9.7%. `CCOC(=O)CCP(=O)(CC)CC` gave a displacement of -3.6%. For `CCOc1ccccc1NC(=O)c1ccc(Cl)c(Cl)c1`, the displacement was -0.9%. `COCc1cc(=O)n2[nH]c(-c3ccc(Br)cc3)cc2n1` was tested, and the displacement was -9.7%. `O=C(/C=C/c1ccc(F)cc1)c1cccc([N+](=O)[O-])c1` gave a displacement of -9.3%. For `Cc1cc(Cl)ccc1NC(=O)c1ccc(I)cc1`, the displacement was 7.8%. `CCOC(=O)c1ccc(N2NC(=O)/C(=C/c3ccc(OC)c(Br)c3)C2=O)cc1` gave a displacement of 8.5%. With `COc1cc(/C=N/NC(=O)Cc2nnc(N)s2)ccc1OCc1ccc(Cl)cc1Cl` the displacement was 19.8%. Compound `COc1ccc(-c2nnc(SCC(=O)Nc3ccc(C)cc3Br)o2)cc1` has a displacement of 14.5%. Work on `Cc1cc(OCCOc2ncnc3ccccc23)ccc1Cl` yielded a displacement of -6%. With `COc1cc(/C=C2\C(=O)NC(=O)N(c3ccc(F)cc3)C2=O)ccc1O` the displacement was -8.6%. `O=C(N/C(=C\c1cccnc1)C(=O)N1CCCCC1)c1cccc(Br)c1` was tested, and the displacement was -8.1%. With `COc1ccccc1NC(=O)CSc1ccc(Cl)cc1Cl` the displacement was 16.6%. With `O=C(Nc1ccc(N2CCOCC2)cc1)c1ccc2c(c1)OCCO2` the displacement was 11.2%. `c1ccc2c(Oc3ncnc4sc5c(c34)CCCC5)cccc2c1` showed a displacement of -7.2%. `Cc1cc(C)c(S(=O)(=O)NCCN2CCOCC2)c(C)c1` was tested, and the displacement was -8.7%. With `Cc1cc(-c2ccc(/C=c3\sc4nc5cc(Br)cnc5n4c3=O)o2)c(C)c([N+](=O)[O-])c1` the displacement was -1.6%. Compound `CN1CCN(CCCCOc2ccc(Br)cc2)CC1` has a displacement of 1.8%. `CCOc1ccccc1NC(=O)c1ccc(OC)cc1` gave a displacement of -0.2%. Compound `COc1ccc(-c2cc(C(=O)Nc3nc4ccc(S(C)(=O)=O)cc4s3)c3ccccc3n2)cc1` has a displacement of -1.1%. Compound `COc1ccc(C(=O)CC2(O)C(=O)N(C)c3ccccc32)cc1OC` (stereo not given) has a displacement of -5.4%. Compound `COc1ccc(-c2cc(C(F)(F)F)n3nc(C(=O)OC(C)C)c(Cl)c3n2)cc1` has a displacement of 2.5%. `CCCCn1c(=S)[nH]c2ccccc21` showed a displacement of 4.7%. Compound `COc1cc2c(cc1C)/C(=N/OC(=O)c1ccc(OC)c(OC)c1)CCC2` has a displacement of -7.1%. For `Cc1ccc(NC(=O)C(C)Oc2ccccc2)c([N+](=O)[O-])c1` (stereo not given), the displacement was -9.1%. `CCc1cc(=O)oc2cc(OCC(C)=O)ccc12` gave a displacement of 10.7%. With `CCN1CCN(S(=O)(=O)c2ccc(OC)cc2)CC1` the displacement was 2.8%. For `O=C1NC(=O)N(c2ccc(Cl)cc2)C(=O)/C1=C/c1ccc(O)c(I)c1`, the displacement was -9.7%. With `COC(=O)c1ccc(C(=O)Nc2cc(Cl)ccc2Cl)cc1NC(=O)c1cc2cccc(O)c2cc1O` the displacement was -0.2%.

Source: PubChem BioAssay AID1240 (Sanford-Burnham Center for Chemical Genomics, 2008)
